Test system: patients with urinary symptoms associated with BPH (prostatism)
Experiment: Boyarsky Symptom Index scores in long-range multicenter open-label study of terazosin in prostatism
Assay type: in vivo, human
Protocol: Data from patients who have participated in the study up to two and one-half years are currently available.
. Patients with evidence of prostate cancer were excluded from the study.
The primary measures of efficacy in these studies were changes in the peak urine flow rate and urinary symptom scores on the Boyarsky Symptom Index. Peak flow rates and voided urine volumes were determined in the standing position, approximately twenty-four hours after dosing using a Dantec Urodyn 1000 uroflowmeter. A minimum voided urine volume of 125-150 mL was required for a valid urine flow rate determination. Peak flow rates and voided volumes were recorded electronically for each determination.
Obstructive urinary symptoms associated with BPH include urinary hesitancy, intermittency, terminal dribbling, impairment in the size and force of the urinary stream, and the sensation of incomplete emptying of the bladder. Irritative symptoms include daytime frequency of urination, nocturia, a sensation of urgency, and dysuria.
Prior to initiation of the clinical trials, experts in urology were consulted regarding what, in their estimation, would constitute a clinically meaningful change in symptom scores and peak flow rates. On the recommendation of these experts, a clinically important change in either variable was defined as a 30% improvement over baseline.

Structure (SMILES): COc1cc2nc(N3CCN(C(=O)C4CCCO4)CC3)nc(N)c2cc1OC (stereo not shown) [terazosin]
- Total Symptom Score Mean Change (6 mo. treatment, 428 patients, mean baseline 10.4): −4.5
- Irritative Symptom Score Mean Change (9 mo. treatment, 379 patients, mean baseline 4.4): −1.4
- Obstructive Symptom Score Mean Change (9 mo. treatment, 379 patients, mean baseline 6.1): −3.4
- Total Symptom Score Mean Change (9 mo. treatment, 379 patients, mean baseline 10.5): −4.7
- Irritative Symptom Score Mean Change (12 mo. treatment, 347 patients, mean baseline 4.3): −1.2
- Obstructive Symptom Score Mean Change (12 mo. treatment, 347 patients, mean baseline 6.1): −3.5
- Total Symptom Score Mean Change (12 mo. treatment, 347 patients, mean baseline 10.4): −4.8
- Irritative Symptom Score Mean Change (15 mo. treatment, 281 patients, mean baseline 4.2): −1.2
- Obstructive Symptom Score Mean Change (15 mo. treatment, 281 patients, mean baseline 6.1): −3.8
- Total Symptom Score Mean Change (15 mo. treatment, 281 patients, mean baseline 10.3): −5.0
- Irritative Symptom Score Mean Change (18 mo. treatment, 263 patients, mean baseline 4.2): −1.1
- Obstructive Symptom Score Mean Change (18 mo. treatment, 263 patients, mean baseline 6.1): −3.7
- Total Symptom Score Mean Change (18 mo. treatment, 263 patients, mean baseline 10.3): −4.9
- Irritative Symptom Score Mean Change (21 mo. treatment, 231 patients, mean baseline 4.2): −1.3
- Obstructive Symptom Score Mean Change (21 mo. treatment, 231 patients, mean baseline 6.3): −4.0
- Total Symptom Score Mean Change (21 mo. treatment, 231 patients, mean baseline 10.5): −5.2
- Irritative Symptom Score Mean Change (24 mo. treatment, 207 patients, mean baseline 4.2): −1.2
- Obstructive Symptom Score Mean Change (24 mo. treatment, 207 patients, mean baseline 6.2): −3.8
- Total Symptom Score Mean Change (24 mo. treatment, 207 patients, mean baseline 10.4): −5.0
- Irritative Symptom Score Mean Change (27 mo. treatment, 96 patients, mean baseline 4.2): −1.2
- Obstructive Symptom Score Mean Change (27 mo. treatment, 96 patients, mean baseline 6.6): −3.8
- Total Symptom Score Mean Change (27 mo. treatment, 96 patients, mean baseline 10.7): −5.0
- Irritative Symptom Score Mean Change (30 mo. treatment, 64 patients, mean baseline 4.6): −1.3
- Obstructive Symptom Score Mean Change (30 mo. treatment, 64 patients, mean baseline 6.7): −4.0
- Total Symptom Score Mean Change (30 mo. treatment, 64 patients, mean baseline 11.3): −5.3

Reference: patent US20020002179A1, “TERAZOSIN IN THE CHRONIC TREATMENT OF THE URINARY SYMPTOMS ASSOCIATED WITH BENIGN PROSTATIC HYPERPLASIA” (priority 1993, published 2002)
